Assay results from publication PMC5892938.
Some of the results follow. At the low end of the ranking the order means little.
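Note: DESeq read counts versus GST-SBP nonspecific binding control pulldown.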

The sequences below were run against GST-SBP-SLBP (stem-loop binding protein) (UniProt Q14493) (assay: targeted RNA Bind-n-Seq). Settings: RBNS binding buffer: 25 mM Tris pH 7.5, 150 mM KCl, 3 mM MgCl2, 0.1% Tween, 0.5 mg/mL BSA, 1 mM DTT; 27 nM protein, 750 pM RNA pool; temperature not stated; high values mean tight binding.
Sequence “GGUCACGUCUCAAUCAACUCAAUAGAGGGGGGGAAAACCCCUUUGCCCUCAUCGUCAACAGCUCGCAGUCAAG” has a binding signal (log2 fold change) of 0.0194.
“GGUCACGUCUCAAUCAACUCAUCGUCAGGAGUUUGCUCCUGCUAUCUCAACAGCUCGCAGUCAAG” gave a binding signal (log2 fold change) of 0.163.
“GGUCACGUCUCAAUCAACUCUAUUCCCAGGGAAAACCCUGGCUAAUUCAACAGCUCGCAGUCAAG” was tested, and the binding signal (log2 fold change) was -0.0931.
“GGUCACGUCUCAAUCAACUCAUUCCCCAGGGAAAUCCCUGGCUUACUCAACAGCUCGCAGUCAAG” gave a binding signal (log2 fold change) of 0.0381.
“GGUCACGUCUCAAUCAACUCAACUCCAGGAGUUUUCUCCUGUUAAUUCAACAGCUCGCAGUCAAG” showed a binding signal (log2 fold change) of -0.099.
“GGUCACGUCUCAAUCAACUCAAUAGAGGGGGGGAAAACCCCUUUACCCUCCGCAUCAACAGCUCGCAGUCAAG” gave a binding signal (log2 fold change) of -0.0145.
“GGUCACGUCUCAAUCAACUCAUCCCCAGGAGUUUUCUCCUGCUUACUCAACAGCUCGCAGUCAAG” showed a binding signal (log2 fold change) of 0.175.
Work on “GGUCACGUCUCAAUCAACUCAUCUCCCAGGGAAAUCCCUGGUUAUUUCAACAGCUCGCAGUCAAG” yielded a binding signal (log2 fold change) of 0.034.
“GGUCACGUCUCAAUCAACUCUUUUCCCAGGGAAAUCCCUGGCUUUUUCAACAGCUCGCAGUCAAG” showed a binding signal (log2 fold change) of 0.0975.
Sequence “GGUCACGUCUCAAUCAACUCAAGUCCCAGGGAAACCCCUGGUAAAUUCAACAGCUCGCAGUCAAG” has a binding signal (log2 fold change) of 0.0355.
Sequence “GGUCACGUCUCAAUCAACUCUUUUUCAGGAGUUUUCUCCUGCUUACUCAACAGCUCGCAGUCAAG” has a binding signal (log2 fold change) of 0.0398.
For “GGUCACGUCUCAAUCAACUCUACUCCCAGGGAAAUCCCUGGCUAAUUCAACAGCUCGCAGUCAAG”, the binding signal (log2 fold change) was -0.0905.
With “GGUCACGUCUCAAUCAACUCUUCGCCAGGAGUUUCCUCCUGUAAUUUCAACAGCUCGCAGUCAAG” the binding signal (log2 fold change) was 0.111.
“GGUCACGUCUCAAUCAACUCAUCAGAGGGGGGGAAAACCCCUUUACCCUCAUCAUCAACAGCUCGCAGUCAAG” gave a binding signal (log2 fold change) of -0.283.
In the case of “GGUCACGUCUCAAUCAACUCCCCAGAGGGGGGGAAAACCCCUUUACCCUCACCGUCAACAGCUCGCAGUCAAG”, the binding signal (log2 fold change) is reported as 0.0121.
For “GGUCACGUCUCAAUCAACUCAACUUCAGGAGUUUGCUCCUGCAUUUUCAACAGCUCGCAGUCAAG”, the binding signal (log2 fold change) was 0.0825.
For “GGUCACGUCUCAAUCAACUCAUCUUCCAGGGAAAUCCCUGGCAUACUCAACAGCUCGCAGUCAAG”, the binding signal (log2 fold change) was -0.00853.
With “GGUCACGUCUCAAUCAACUCAUCCCCCAGGGAAAGCCCUGGCAUACUCAACAGCUCGCAGUCAAG” the binding signal (log2 fold change) was 0.0652.
“GGUCACGUCUCAAUCAACUCUUCGUCCAGGGAAAGCCCUGGCAUAUUCAACAGCUCGCAGUCAAG” gave a binding signal (log2 fold change) of -0.192.
“GGUCACGUCUCAAUCAACUCUUCUUCAGGAGUUUCCUCCUGUUUUCUCAACAGCUCGCAGUCAAG” showed a binding signal (log2 fold change) of -0.0536.
“GGUCACGUCUCAAUCAACUCAUUUUCAGGAGUUUGCUCCUGCAAUUUCAACAGCUCGCAGUCAAG” was tested, and the binding signal (log2 fold change) was -0.0851.
“GGUCACGUCUCAAUCAACUCUACUCCCAGGGAAAUCCCUGGUUUUUUCAACAGCUCGCAGUCAAG” gave a binding signal (log2 fold change) of -0.117.
Work on “GGUCACGUCUCAAUCAACUCAUCCCCAGGAGUUUCCUCCUGCUAAUUCAACAGCUCGCAGUCAAG” yielded a binding signal (log2 fold change) of 0.178.
“GGUCACGUCUCAAUCAACUCAUACGAGGGGGGGAAAACCCCUUUACCCUCAUUAUCAACAGCUCGCAGUCAAG” showed a binding signal (log2 fold change) of 0.07.
In the case of “GGUCACGUCUCAAUCAACUCUAAAGAGGGGGGGAAAACCCCUUUACCCUCACCGUCAACAGCUCGCAGUCAAG”, the binding signal (log2 fold change) is reported as -0.124.
Work on “GGUCACGUCUCAAUCAACUCAACUCCAGGAGUUUUCUCCUGUUUUUUCAACAGCUCGCAGUCAAG” yielded a binding signal (log2 fold change) of -0.0548.
Work on “GGUCACGUCUCAAUCAACUCAAUAGAGGGGGGGAAAACCCCUUUACCCUCACAUUCAACAGCUCGCAGUCAAG” yielded a binding signal (log2 fold change) of -0.13.
“GGUCACGUCUCAAUCAACUCAGUUCCAGGAGUUUCCUCCUGUUUUUUCAACAGCUCGCAGUCAAG” gave a binding signal (log2 fold change) of -0.214.
Work on “GGUCACGUCUCAAUCAACUCUUUCUCAGGAGUUUUCUCCUGUAUUUUCAACAGCUCGCAGUCAAG” yielded a binding signal (log2 fold change) of 0.00747.
Sequence “GGUCACGUCUCAAUCAACUCAUCUCCAGGAGUUUUCUCCUGCAAUUUCAACAGCUCGCAGUCAAG” has a binding signal (log2 fold change) of 0.0492.
“GGUCACGUCUCAAUCAACUCAUUAGAGGGGGGGAAAACCCCUUUGCCCUCAAUCUCAACAGCUCGCAGUCAAG” gave a binding signal (log2 fold change) of -0.0183.
“GGUCACGUCUCAAUCAACUCCCCAGAGGGGGGGAAAACCCCUUUACCCUCAAAUUCAACAGCUCGCAGUCAAG” showed a binding signal (log2 fold change) of 0.402.
For “GGUCACGUCUCAAUCAACUCAUCUCCAGGAGUUUACUCCUGUUAACUCAACAGCUCGCAGUCAAG”, the binding signal (log2 fold change) was -0.0291.
Work on “GGUCACGUCUCAAUCAACUCUACUCCAGGAGUUUACUCCUGUUUUUUCAACAGCUCGCAGUCAAG” yielded a binding signal (log2 fold change) of -0.0335.
With “GGUCACGUCUCAAUCAACUCUUUCCCCAGGGAAAUCCCUGGUUUUCUCAACAGCUCGCAGUCAAG” the binding signal (log2 fold change) was 0.0315.
“GGUCACGUCUCAAUCAACUCAAUUCCAGGAGUUUUCUCCUGCUAUCUCAACAGCUCGCAGUCAAG” showed a binding signal (log2 fold change) of -0.0411.
“GGUCACGUCUCAAUCAACUCUUCUUCAGGAGUUUCCUCCUGCAAUCUCAACAGCUCGCAGUCAAG” was tested, and the binding signal (log2 fold change) was 0.0291.
“GGUCACGUCUCAAUCAACUCUAUCUCCAGGGAAACCCCUGGCAUUCUCAACAGCUCGCAGUCAAG” showed a binding signal (log2 fold change) of -0.0594.
For “GGUCACGUCUCAAUCAACUCUUCUUCCAGGGAAAGCCCUGGUAAUCUCAACAGCUCGCAGUCAAG”, the binding signal (log2 fold change) was -0.104.
Work on “GGUCACGUCUCAAUCAACUCUAUCCCAGGAGUUUUCUCCUGUUUUUUCAACAGCUCGCAGUCAAG” yielded a binding signal (log2 fold change) of 0.0462.
“GGUCACGUCUCAAUCAACUCUAUCCCCAGGGAAAACCCUGGUAAUCUCAACAGCUCGCAGUCAAG” gave a binding signal (log2 fold change) of -0.331.
“GGUCACGUCUCAAUCAACUCUUCCCCCAGGGAAAUCCCUGGCAAUCUCAACAGCUCGCAGUCAAG” was tested, and the binding signal (log2 fold change) was -0.178.
In the case of “GGUCACGUCUCAAUCAACUCAAUCCCAGGAGUUUACUCCUGUAUACUCAACAGCUCGCAGUCAAG”, the binding signal (log2 fold change) is reported as 0.0902.
In the case of “GGUCACGUCUCAAUCAACUCAAUUUCCAGGGAAAUCCCUGGUAUACUCAACAGCUCGCAGUCAAG”, the binding signal (log2 fold change) is reported as 0.0713.
For “GGUCACGUCUCAAUCAACUCUUUCUCCAGGGAAAUCCCUGGUAUACUCAACAGCUCGCAGUCAAG”, the binding signal (log2 fold change) was -0.0559.
“GGUCACGUCUCAAUCAACUCUUCCUCAGGAGUUUUCUCCUGUAUAUUCAACAGCUCGCAGUCAAG” showed a binding signal (log2 fold change) of -0.094.
“GGUCACGUCUCAAUCAACUCUAUAGAGGGGGGGAAAACCCCUUUACCCUCCAAUUCAACAGCUCGCAGUCAAG” showed a binding signal (log2 fold change) of 0.227.
“GGUCACGUCUCAAUCAACUCUUUUUCAGGAGUUUUCUCCUGCUAUUUCAACAGCUCGCAGUCAAG” was tested, and the binding signal (log2 fold change) was 0.086.
“GGUCACGUCUCAAUCAACUCAAAAGAGGGGGGGAAAACCCCUUUACCCUCAAGAUCAACAGCUCGCAGUCAAG” gave a binding signal (log2 fold change) of -0.129.
“GGUCACGUCUCAAUCAACUCCCUCGAGGGGGGGAAAACCCCUUUACCCUCACCAUCAACAGCUCGCAGUCAAG” was tested, and the binding signal (log2 fold change) was 0.017.
“GGUCACGUCUCAAUCAACUCCUUCGAGGGGGGGAAAACCCCUUUACCCUCUCAAUCAACAGCUCGCAGUCAAG” gave a binding signal (log2 fold change) of -0.264.
“GGUCACGUCUCAAUCAACUCUUCUUCAGGAGUUUUCUCCUGUAAUGUCAACAGCUCGCAGUCAAG” was tested, and the binding signal (log2 fold change) was -0.107.
For “GGUCACGUCUCAAUCAACUCAGUCUCAGGAGUUUACUCCUGUUUUUUCAACAGCUCGCAGUCAAG”, the binding signal (log2 fold change) was -0.0775.
In the case of “GGUCACGUCUCAAUCAACUCCUCAGAGGGGGGGAAAACCCCUUUGCCCUCAUAUUCAACAGCUCGCAGUCAAG”, the binding signal (log2 fold change) is reported as -0.0359.
“GGUCACGUCUCAAUCAACUCUUCCCCCAGGGAAACCCCUGGUAUUUUCAACAGCUCGCAGUCAAG” showed a binding signal (log2 fold change) of 0.0885.
With “GGUCACGUCUCAAUCAACUCUUAAGAGGGGGGGAAAACCCCUUUGCCCUCAUUAUCAACAGCUCGCAGUCAAG” the binding signal (log2 fold change) was 0.141.
In the case of “GGUCACGUCUCAAUCAACUCAUCUUCAGGAGUUUCCUCCUGUUUAUUCAACAGCUCGCAGUCAAG”, the binding signal (log2 fold change) is reported as -0.0211.
In the case of “GGUCACGUCUCAAUCAACUCAAUCGCAGGAGUUUCCUCCUGGUUAUUCAACAGCUCGCAGUCAAG”, the binding signal (log2 fold change) is reported as 0.0382.
Work on “GGUCACGUCUCAAUCAACUCAUUCCCAGGAGUUUGCUCCUGCAUUUUCAACAGCUCGCAGUCAAG” yielded a binding signal (log2 fold change) of 0.102.
“GGUCACGUCUCAAUCAACUCUAUCUCAGGAGUUUACUCCUGUUUUGUCAACAGCUCGCAGUCAAG” gave a binding signal (log2 fold change) of 0.0356.
For “GGUCACGUCUCAAUCAACUCUAUCUCCAGGGAAAGCCCUGGUUUAUUCAACAGCUCGCAGUCAAG”, the binding signal (log2 fold change) was -0.092.
With “GGUCACGUCUCAAUCAACUCAUCUUCAGGAGUUUGCUCCUGUUUAUUCAACAGCUCGCAGUCAAG” the binding signal (log2 fold change) was 0.0984.
For “GGUCACGUCUCAAUCAACUCAUCGUCAGGAGUUUACUCCUGUUUUUUCAACAGCUCGCAGUCAAG”, the binding signal (log2 fold change) was -0.13.
Sequence “GGUCACGUCUCAAUCAACUCUAUCUCCAGGGAAAACCCUGGCAUUCUCAACAGCUCGCAGUCAAG” has a binding signal (log2 fold change) of 0.0773.
“GGUCACGUCUCAAUCAACUCUUUUCCAGGAGUUUACUCCUGUUUACUCAACAGCUCGCAGUCAAG” was tested, and the binding signal (log2 fold change) was 0.254.
With “GGUCACGUCUCAAUCAACUCAUUUCCCAGGGAAACCCCUGGUAAUUUCAACAGCUCGCAGUCAAG” the binding signal (log2 fold change) was 0.219.
Sequence “GGUCACGUCUCAAUCAACUCUUCGGAGGGGGGGAAAACCCCUUUACCCUCACAAUCAACAGCUCGCAGUCAAG” has a binding signal (log2 fold change) of 0.00953.
Work on “GGUCACGUCUCAAUCAACUCUUCCGAGGGGGGGAAAACCCCUUUACCCUCAAUCUCAACAGCUCGCAGUCAAG” yielded a binding signal (log2 fold change) of -0.107.
Sequence “GGUCACGUCUCAAUCAACUCUAUAGAGGGGGGGAAAACCCCUUUGCCCUCACCAUCAACAGCUCGCAGUCAAG” has a binding signal (log2 fold change) of -0.034.
“GGUCACGUCUCAAUCAACUCUUUUUCCAGGGAAAUCCCUGGCUAUCUCAACAGCUCGCAGUCAAG” gave a binding signal (log2 fold change) of -0.0403.
With “GGUCACGUCUCAAUCAACUCAUCCCCCAGGGAAAGCCCUGGCAAACUCAACAGCUCGCAGUCAAG” the binding signal (log2 fold change) was -0.0744.
“GGUCACGUCUCAAUCAACUCUUCGUCCAGGGAAAGCCCUGGUAUAUUCAACAGCUCGCAGUCAAG” was tested, and the binding signal (log2 fold change) was 0.144.
“GGUCACGUCUCAAUCAACUCUAUCUCAGGAGUUUUCUCCUGCAUUUUCAACAGCUCGCAGUCAAG” was tested, and the binding signal (log2 fold change) was -0.043.
Work on “GGUCACGUCUCAAUCAACUCAUUUUCCAGGGAAAUCCCUGGUAUUUUCAACAGCUCGCAGUCAAG” yielded a binding signal (log2 fold change) of -0.0926.
